Experimental data published in a collection of fitness landscapes (doi:10.1016/j.celrep.2020.107928).
The full ranking holds about 81,000 sequences; the median of “one-hybrid fitness for binding NBS DNA” is about -0.1, and the highest 2% start at about 0.36. The list shows a part of the results.

B1: Caulobacter ParB omega fusion; a variant is named by its letters at X, in order, B8GW30 (parent)
chain: MESVVVGEPGMSEGRRGLGRGLSALLGEVDAAPAQAPGEQLGGSREAPIEILQRNPDQPRRTFREEDLEDLSNSIREKGVLQPILVRPSPDTAGEYQIVAGERAWRAAQRAGLKTVPIMVRELDDLAVLEIGIIENVQRADLNVLEEALSYKVLMEKFERTQENIAQTIGKSXSHVANXMRLLXLPDEVQSYLVSGELTAXHARAIAAAADPVALAKQIIEGGLSVRETEALARKAPNLSAGKSKGGRPPRVKDTDTQALESDLSSVLGLDVSIDHRGSTGTLTITYATLEQLDDLCNRLTRGI

Variants of: B1
Test: one-hybrid fitness for binding NBS DNA (the Noc-binding site; scaled: cognate 1, non-cognate 0); higher = stronger binding
Settings: with NBS DNA site
Summary of the method: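 On M9-minus-histidine containing 0.1 mM IPTG and 5 mM 3-AT, E. coli USO cells with a HIS3 reporter, site 19 bp from the promoter, grew 48 hours at 37°C to select Caulobacter ParB libraries randomised at four specificity codons. Plasmids from before and after were Illumina-sequenced, with three replicate libraries pooled and variants under 10 reads left out. Fitness is the log change in variant-to-wild-type read ratio, rescaled against cognate and non-cognate.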

| Variant | one-hybrid fitness for binding NBS DNA |
| --- | --- |
| WNVE | ≤ 0.2 |
| SQPG | ≤ 0.2 |
| QATG | ≤ 0.2 |
| GFQR | ≤ 0.2 |
| EYKV | ≤ 0.2 |
| TDCG | ≤ 0.2 |
| RYNQ | ≤ 0.2 |
| STGT | ≤ 0.2 |
| LGNW | ≤ 0.2 |
| HCRR | 0.227 |
| VMQT | ≤ 0.2 |
| PNYC | ≤ 0.2 |
| ETTT | ≤ 0.2 |
| QKSI | ≤ 0.2 |
| ARVG | ≤ 0.2 |
| VKRM | ≤ 0.2 |
| LYNV | ≤ 0.2 |
| SPVY | ≤ 0.2 |
| GKQC | ≤ 0.2 |
| SEGC | ≤ 0.2 |
| VVVK | ≤ 0.2 |
| GNVS | ≤ 0.2 |
| GVFT | ≤ 0.2 |
| YGNR | ≤ 0.2 |
| QCGY | 0.3 |

| Variant | one-hybrid fitness for binding NBS DNA |
| --- | --- |
| SYRV | ≤ 0.2 |
| LRAC | ≤ 0.2 |
| LTSA | ≤ 0.2 |
| FRLC | ≤ 0.2 |
| WNPV | ≤ 0.2 |
| NRQK | ≤ 0.2 |
| CETS | ≤ 0.2 |
| QGNI | ≤ 0.2 |
| RKDA | ≤ 0.2 |
| PQSG | ≤ 0.2 |
| RGMQ | ≤ 0.2 |
| RTHD | ≤ 0.2 |
| EDEG | ≤ 0.2 |
| RQYM | ≤ 0.2 |
| TRIV | ≤ 0.2 |
| RRWR | 0.732 |
| TVSG | ≤ 0.2 |
| VLPA | ≤ 0.2 |
| QYTI | ≤ 0.2 |
| DHKC | ≤ 0.2 |
| FANT | ≤ 0.2 |
| TAWT | ≤ 0.2 |
| KHRM | ≤ 0.2 |
| SIDT | ≤ 0.2 |
| LLLR | ≤ 0.2 |

| Variant | one-hybrid fitness for binding NBS DNA |
| --- | --- |
| GHDY | ≤ 0.2 |
| QPVG | ≤ 0.2 |
| HLES | ≤ 0.2 |
| RNSF | ≤ 0.2 |
| DAME | ≤ 0.2 |
| SHDP | ≤ 0.2 |
| AFGF | ≤ 0.2 |
| NACN | ≤ 0.2 |
| VQLS | ≤ 0.2 |
| NHQG | ≤ 0.2 |
| HLAL | ≤ 0.2 |
| VQTV | ≤ 0.2 |
| KGKL | ≤ 0.2 |
| AQVF | ≤ 0.2 |
| VVTD | ≤ 0.2 |
| AFHF | ≤ 0.2 |
| HLHC | ≤ 0.2 |
| FCDS | ≤ 0.2 |
| SLDW | ≤ 0.2 |
| PGYC | ≤ 0.2 |
| RHRE | ≤ 0.2 |
| SWLV | ≤ 0.2 |
| QTTG | ≤ 0.2 |
| FSYN | ≤ 0.2 |
| LDVV | ≤ 0.2 |

| Variant | one-hybrid fitness for binding NBS DNA |
| --- | --- |
| FVDV | ≤ 0.2 |
| HLDP | ≤ 0.2 |
| CTPE | ≤ 0.2 |
| TNIN | ≤ 0.2 |
| LQLR | ≤ 0.2 |
| HVHY | ≤ 0.2 |
| IKVA | ≤ 0.2 |
| AHQC | ≤ 0.2 |
| QQYI | ≤ 0.2 |
| APMP | ≤ 0.2 |
| RDHM | ≤ 0.2 |
| HVSD | ≤ 0.2 |
| RYSE | ≤ 0.2 |
| RWMS | ≤ 0.2 |
| DPWF | ≤ 0.2 |
| LFYY | ≤ 0.2 |
| ILFD | ≤ 0.2 |
| HPYC | ≤ 0.2 |
| MLIT | ≤ 0.2 |
| ETAF | ≤ 0.2 |
| PCRM | ≤ 0.2 |
| RKLY | ≤ 0.2 |
| CSSL | ≤ 0.2 |
